Measured values reported in the supplement of paper PMC11417369.
± gives the standard deviation of the averaged measurements. The list shows a part of the results.

Tested on: PfAP2-LT AP2 domain (GST-tagged)
Assay: gcPBM binding intensity (ln(normalized median fluorescence intensity)); higher = stronger DNA binding
Procedure, shortened: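 Each value is the highest Masliner-normalised natural-log median intensity across replicate spots of either orientation of a probe. The probes were primer-extended double-stranded 36-bp intergenic genomic sequences on an Agilent 4 × 180k array, alongside negative controls, exposed for 1 h to GST-tagged P. falciparum DNA-binding domains expressed in E. coli. Bound protein was picked up with Alexa488 anti-GST antibody and scanned at 488 nm.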

| Sequence | gcPBM binding intensity (ln) |
| --- | --- |
| TTATATATATGACTTTGTACATATACATATTTTTTA [XGTACX_site4669] | 8.69 ± 0.44 |
| TCTCTTTTTCGTTCATGTACAAATAAATAAAAATAT [XGTACX_site6558] | 8.41 ± 0.42 |
| TATTATATATATGCACGTACAAAAATAATAAAGGTA [XGTACX_site3506] | 8.94 ± 0.45 |
| ATATGTATTTATATATGTTTGATTTTTTTTTTTTTT [TGCATGCA_negctrl_site506] | 8.61 ± 0.45 |
| AGGAAAAAAGAAAAAACACACATAAATATATATATA [CACACA_site3085] | 9.11 ± 0.38 |
| AAATGAAATAAAATCATATATTTATAATTATTATAA [TGCATGCA_negctrl_site612] | 8.36 ± 0.53 |
| CATACAGACATACATACACACATACCTATAAATATA [CACACA_site6995] | 9.44 ± 0.44 |
| ATATTCTGCTGTTTAGTGCAATTATGAAATTATGAT | 8.64 ± 0.32 |
| AAAGAGAACAGAAGTACACACATGTTCTTTTAGTAA [CACACA_site5557] | 8.98 ± 0.42 |
| TTGATTTTTATTTTTAAAATAAATAAATTTCAAATG [TGCATGCA_negctrl_site199] | 8.01 ± 0.5 |
| TAAAAAATAAAAATTGCACACTAAAAAATTACCCAC [CACACA_site5823] | 9.09 ± 0.26 |
| TAAAAAGAAATGTAAAGTACAAATTTGAATAACATG [XGTACX_site7981] | 8.88 ± 0.52 |
| AAAAAAAACAAACACACACACAAATATTTATATATT [CACACA_site436] | 9.63 ± 0.22 |
| TTTTTTTTTCTTTGGTGTACAATGTAATAGAAAATA [XGTACX_site227] | 8.29 ± 0.35 |
| TTTTTTTTTGAATATTGTACATATATATTACTTTTA [XGTACX_site5520] | 8.74 ± 0.45 |
| AAAAAATTATATAAATGTACATTTTGGCTAGACATG [XGTACX_site5977] | 8.73 ± 0.35 |
| CATATATATAATTATTCACACAATAGTTAAAAGTAT [CACACA_site5302] | 8.8 ± 0.42 |
| ATATGTATGTATGTATGTACTTATTTATTTATTAAT [XGTACX_site8018] | 8.83 ± 0.42 |
| TACATAAATTAAAACACACACACACTAATAAAAAAA [CACACA_site8712] | 9.85 ± 0.18 |
| TAGCTCGTTCGGAGCACACACATATATATATATATA [CACACA_site1948] | 9.81 ± 0.47 |
| GTTTTATTTTGTTTCTATTTGACACATGTGATTATT [CACACA_negctrl_site1246] | 9.1 ± 0.52 |
| ATTCAATATATATACACACACACTTTTAATAATTAA [CACACA_site3770] | 9.38 ± 0.17 |

| Sequence | gcPBM binding intensity (ln) |
| --- | --- |
| TCTTGTAAATATATGTGTATATTATATTTTATTATA [TGCATGCA_negctrl_site117] | 8.64 ± 0.45 |
| TGTTAAAATAAAATCTATTACATTTTTATGGTTATA [XGTACX_negctrl_site525] | 8.3 ± 0.47 |
| CTTAATATTCTTTAAAGTACACAAAATAAGAATATA [XGTACX_site5489] | 8.29 ± 0.47 |
| TGCAAGGAAAAACACACACACACATAAATGTATATA [CACACA_site751] | 9.79 ± 0.25 |
| ATTTCATATACAAATTGTACATACAATTTTATGTTT [XGTACX_site3240] | 8.93 ± 0.35 |
| TTAAAAATAATATTATGTACTAAGAATAAATATATA [XGTACX_site3100] | 8.45 ± 0.4 |
| CTAGTAAAAAATGCAAGTACATACATTATAAGTATA [XGTACX_site3908] | 8.88 ± 0.43 |
| ATATTGGAGCACAACACACACAAGTATAAATATGGA [CACACA_site6834] | 9.48 ± 0.45 |
| AAAAAACACGCACATACACACAAAAATGTTATAAAT [CACACA_site6188] | 9.53 ± 0.4 |
| TTATATTTTTTAATTACACACAATTTTTATAAATAT [CACACA_site4148] | 8.71 ± 0.47 |
| ATCTCATAAAACCGCACACACATAAAATTTGCATTA [CACACA_site3891] | 9.45 ± 0.4 |
| TTAATTTCTATATACGCATGTATGAATAAGATATTG [TGCATGCA_site202] | 8.4 ± 0.41 |
| TAATTATATGTATACACACACATACATTTACATAAC [CACACA_site3238] | 9.4 ± 0.3 |
| CAAACAAACAAATATACACACTTTTGTATAAAGTAA [CACACA_site5860] | 8.97 ± 0.49 |
| TATAATTATATATATAGTACAGATTTGTTATGTTTA [XGTACX_site7724] | 8.54 ± 0.35 |
| ATTTTTTTATAAGAAAATTTCTAACGTTAAAAAAAA [CACACA_negctrl_site1367] | 7.94 ± 0.4 |
| AGCTCTTGTCATTTTGCACACACACCCGTATAGGTT [CACACA_site3056] | 9.96 ± 0.39 |
| GATTCTTCACCGTACTCACACATATATATATATATA [CACACA_site5665] | 9.72 ± 0.028 |
| AAAAGGGAAATAAAATAAAAAAAGAAACATATATAG [CACACA_negctrl_site455] | 8.76 ± 0.54 |
| ATCCATTATTTTTGTTGTACGGGTAACTTTAAAAAG [XGTACX_site2226] | 8.54 ± 0.4 |
| TCTTTTTTTTTTAAACGTACATTGCATTATCACGTA [XGTACX_site6873] | 8.7 ± 0.47 |
| TATCTCATAGTATACACACACACACCCACCCATATA [CACACA_site1739] | 10.1 ± 0.11 |

| Sequence | gcPBM binding intensity (ln) |
| --- | --- |
| AATATATATATATTCACACATAAAAAAGTAAAAAAA [CACACA_site5040] | 8.84 ± 0.49 |
| CACACGCACGAACACACACACACACGCATATAAATA [CACACA_site6302] | 10.2 ± 0.3 |
| TATTTATTATTAAGATGTACATAAAACACTGAATAA [XGTACX_site4246] | 8.69 ± 0.47 |
| GACCATATGAATAATGCACACGTTTTAAAATATTAA [CACACA_site5312] | 8.88 ± 0.39 |
| TGAAAAAGGAAAAAAAAAAAAAAAAAAAAAACGAAA [GTGCAC_negctrl_site555] | 8.46 ± 0.57 |
| ATTAAGACACATTGCACACGTGCACCCATAGAAAAA [CACACA_site408] | 9.12 ± 0.42 |
| TATATATATATAATAGTGCATAAATAAATATATAAA | 8.85 ± 0.51 |
| TTTTAATTAAGACACACACACACATATAAATATGTA [CACACA_site7144] | 9.75 ± 0.31 |
| TATCATTTCATATCAAGTACAAACATTTTACATATA [XGTACX_site5307] | 8.59 ± 0.35 |
| ATAATAATATATATTGTACACACAAAATGGGAAAAA [CACACA_site8568] | 9.12 ± 0.45 |
| ATTTGCTCACAAGAAGCACACAAAAAAAGAAAAAAA [CACACA_site9338] | 8.71 ± 0.49 |
| CAAAAAATTTGACGTAGTACTTAAAAAAAAAAAAAA [XGTACX_site4523] | 8.37 ± 0.46 |
| TGTGTGTGTTCATGGGTGCTTTAATACTATTATAGG [GTGCAC_site9465] | 9.44 ± 0.17 |
| TATTTGCTACATATATGTACTAAAAACTTTTTGCTT [XGTACX_site2362] | 8.87 ± 0.63 |
| TATTATAAAAATATTCAGATACATTAACTTACTTTT [XGTACX_negctrl_site4] | 8.31 ± 0.48 |
| TATCAATTTTTCTGGCTATCCAATTAGGGGAAGCCA [CACACA_negctrl_site1045] | 8.24 ± 0.37 |
| TTATGTCATAAATGCACACATATACATTGTTTTGAT [CACACA_site646] | 9.15 ± 0.31 |
| TCTTTAACAAGTTAAACACACATACATAAATACATA [CACACA_site5406] | 8.82 ± 0.41 |
| ATATAAATAAACAGGTGTACTATAATGTTCATAGTA [XGTACX_site1553] | 8.85 ± 0.49 |
| TATGATTTCACATAATGTACTTGCTAATTCGTGAAT [XGTACX_site1408] | 8.72 ± 0.39 |
| GGGAAAATATTTGGGTGTACAAACAAATTAGCTAGC [XGTACX_site6795] | 8.94 ± 0.47 |
| TAATTATATATATATGCATGTTATAATTTTTATTTT [TGCATGCA_site78] | 8.71 ± 0.41 |

| Sequence | gcPBM binding intensity (ln) |
| --- | --- |
| AAGAAAATATAAAATGCACACTATAAATTGTATTTA [CACACA_site4257] | 8.78 ± 0.39 |
| TTTACAGGAAAAAATACACACATTATTTTACCTTAT [CACACA_site2833] | 8.83 ± 0.49 |
| CAATAAAAATTAAAATGTACAAATAAATATAAATAT [XGTACX_site7265] | 8.85 ± 0.48 |
| ACATGCCAAAATCTAATACAATAATAATAAAAAAAA [XGTACX_negctrl_site160] | 8.69 ± 0.45 |
| CATTTACATGCCAACATGCACTGAACAATCTTTATA [GTGCAC_site9797] | 8.73 ± 0.45 |
| ACAAAACTTTTAAGAACACACAAAAATGTACTATCG [CACACA_site7245] | 8.77 ± 0.47 |
| TTTTATGAATAATTATGTACATAACAAATGATATAT [XGTACX_site8318] | 8.6 ± 0.46 |
| CCCTATATAAATAGCTGTACATTTGAACATGTTCAG [XGTACX_site2187] | 8.71 ± 0.37 |
| TACAAAAAAAAATAAAATACATATATATATATATAT [XGTACX_negctrl_site608] | 9.71 ± 0.17 |
| GAAAATGAAATCCTTGCATGTAAAATTAAAATAGAA [TGCATGCA_site569] | 8.71 ± 0.52 |
| TTTTTTTCTTAAAGATGTACTTTTTAAAAATAATCT [XGTACX_site1429] | 8.2 ± 0.59 |
| GTAGTAATAAATTAAAGTACAGAATATATTATACTA [XGTACX_site2809] | 8.79 ± 0.47 |
| ATGAATTATAAATATTCACACAATATTTTTCATATG [CACACA_site4484] | 8.76 ± 0.4 |
| AGTGTGCTCAGCTTAGCACAAATTGGAATACCATGT [CACACA_negctrl_site367] | 9.04 ± 0.38 |
| TATATACTCAGACATACACACAAATAAAAAAACACC [CACACA_site5820] | 9.53 ± 0.27 |
| TTATGTGATTTTAATTGTACATAAATATTTGTTAAC [XGTACX_site3489] | 8.56 ± 0.42 |
| CACGCATACAGACACACACACACACGGATATAAATA [CACACA_site6445] | 10.2 ± 0.4 |
| AAATATAGTATTAAAACACACATTTATATAAAAAGG [CACACA_site1482] | 8.86 ± 0.47 |
| TGAACTCATAGGAAAACACACATATGTGTAATATAT [CACACA_site4267] | 9.3 ± 0.41 |
| AACAAAAAAACAAACACACACACACGCATATTTATA [CACACA_site7680] | 10.2 ± 0.29 |
| AAAAACAACACAGATAAATTAACACACACACACATA [XGTACX_negctrl_site588] | 10.1 ± 0.12 |
| TTTTTTTATACAATTTTATATATTAAATATTATAAT [CACACA_negctrl_site226] | 8.41 ± 0.47 |
